Experimental data reported in the supplement of paper PMC8948288.
The sequences are guide strands of siRNAs; only the seed at positions 2 to 7 varies.

Key:
H4 = assay: cell viability relative to siNT1 (ATP content); H4 human neuroglioma and GL261 mouse glioma; higher = less toxic; conditions: siRNA concentration 10 nM; 96 h; human
GL261 = assay: as above; conditions: siRNA concentration 25 nM; 96 h; mouse
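Note: cells reverse transfected with siRNA duplexes via lipid reagent, ATP read by luminescence, triplicate wells, values scaled to mean viability with non-targeting control siNT1.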

Sequence | cell viability (H4) [%] | cell viability (GL261) [%]
UGUCAGAACAUGUAAACCA | 115 | 28.6
UGUCAGCACAUGUAAACCA | 44.1 | 10.2
UGUCAGGACAUGUAAACCA | 82.5 | 18.4
UGUCAGUACAUGUAAACCA | 72.9 | 6.85
UGUCAUAACAUGUAAACCA | 103 | 26.2
UGUCAUCACAUGUAAACCA | 32.1 | 9.91
UGUCAUGACAUGUAAACCA | 101 | 13.2
UGUCAUUACAUGUAAACCA | 74.9 | 20.1
UGUCCAAACAUGUAAACCA | 69.9 | 30.3
UGUCCACACAUGUAAACCA | 52.4 | 21.3
UGUCCAGACAUGUAAACCA | 56 | 16.2
UGUCCAUACAUGUAAACCA | 76.4 | 11.5
UGUCCCAACAUGUAAACCA | 54.9 | 10.9
UGUCCCCACAUGUAAACCA | 28.1 | 26.3
UGUCCCGACAUGUAAACCA | 54 | 17.6
UGUCCCUACAUGUAAACCA | 24.4 | 6.63
UGUCCGAACAUGUAAACCA | 97.6 | 16
UGUCCGCACAUGUAAACCA | 55.7 | 4.64
UGUCCGGACAUGUAAACCA | 36.8 | 20.1
UGUCCGUACAUGUAAACCA | 60.2 | 21.7
UGUCCUAACAUGUAAACCA | 63.3 | 54
UGUCCUCACAUGUAAACCA | 11.7 | 5.32
UGUCCUGACAUGUAAACCA | 51.7 | 23
UGUCCUUACAUGUAAACCA | 37.5 | 9.3

Sequence | cell viability (H4) [%] | cell viability (GL261) [%]
UGUCGAAACAUGUAAACCA | 58.7 | 53.8
UGUCGACACAUGUAAACCA | 52.8 | 26
UGUCGAGACAUGUAAACCA | 93.1 | 32.6
UGUCGAUACAUGUAAACCA | 73.6 | 38.9
UGUCGCAACAUGUAAACCA | 101 | 22.6
UGUCGCCACAUGUAAACCA | 32.7 | 5.91
UGUCGCGACAUGUAAACCA | 93.2 | 31.9
UGUCGCUACAUGUAAACCA | 23.3 | 13.1
UGUCGGAACAUGUAAACCA | 81.4 | 34.2
UGUCGGCACAUGUAAACCA | 83.3 | 20.1
UGUCGGGACAUGUAAACCA | 53.4 | 16.8
UGUCGGUACAUGUAAACCA | 65.4 | 22
UGUCGUAACAUGUAAACCA | 94.7 | 41
UGUCGUCACAUGUAAACCA | 80.8 | 16.8
UGUCGUGACAUGUAAACCA | 105 | 39.3
UGUCGUUACAUGUAAACCA | 83.3 | 17.2
UGUCUAAACAUGUAAACCA | 92.7 | 53.3
UGUCUACACAUGUAAACCA | 60.8 | 32.5
UGUCUAGACAUGUAAACCA | 89.6 | 47.7
UGUCUAUACAUGUAAACCA | 63.4 | 30.3
UGUCUCAACAUGUAAACCA | 63.7 | 22.5
UGUCUCCACAUGUAAACCA | 22.9 | 6.28
UGUCUCGACAUGUAAACCA | 60.8 | 10.4
UGUCUCUACAUGUAAACCA | 37.9 | 8.43

Sequence | cell viability (H4) [%] | cell viability (GL261) [%]
UGUCUGAACAUGUAAACCA | 56.7 | 28.5
UGUCUGCACAUGUAAACCA | 20.5 | 7.87
UGUCUGGACAUGUAAACCA | 15.1 | 10.1
UGUCUGUACAUGUAAACCA | 59.9 | 21.6
UGUCUUAACAUGUAAACCA | 96.1 | 38.4
UGUCUUCACAUGUAAACCA | 34.4 | 7.83
UGUCUUGACAUGUAAACCA | 57.1 | 24.5
UGUCUUUACAUGUAAACCA | 52.1 | 37.2
UGUGAAAACAUGUAAACCA | 82.3 | 66.3
UGUGAACACAUGUAAACCA | 63.5 | 37.1
UGUGAAGACAUGUAAACCA | 75.1 | 70.5
UGUGAAUACAUGUAAACCA | 67.8 | 41
UGUGACAACAUGUAAACCA | 62.1 | 52.4
UGUGACCACAUGUAAACCA | 20.6 | 19
UGUGACGACAUGUAAACCA | 86.1 | 43.5
UGUGACUACAUGUAAACCA | 25.1 | 33.6
UGUGAGAACAUGUAAACCA | 59.1 | 43.4
UGUGAGCACAUGUAAACCA | 38 | 47.9
UGUGAGGACAUGUAAACCA | 41.7 | 29.5
UGUGAGUACAUGUAAACCA | 20.1 | 14.2
UGUGAUAACAUGUAAACCA | 66.2 | 59
UGUGAUCACAUGUAAACCA | 70.5 | 45.9
UGUGAUGACAUGUAAACCA | 78.6 | 28.6
UGUGAUUACAUGUAAACCA | 48.9 | 61.5

Sequence | cell viability (H4) [%] | cell viability (GL261) [%]
UGUGCAAACAUGUAAACCA | 77.1 | 59.8
UGUGCACACAUGUAAACCA | 49.2 | 50.7
UGUGCAGACAUGUAAACCA | 60 | 46.2
UGUGCAUACAUGUAAACCA | 71.8 | 32.6
UGUGCCAACAUGUAAACCA | 76.9 | 34.7
UGUGCCCACAUGUAAACCA | 83.7 | 33.7
UGUGCCGACAUGUAAACCA | 59.8 | 35.4
UGUGCCUACAUGUAAACCA | 66 | 45.9
UGUGCGAACAUGUAAACCA | 92.4 | 46.5
UGUGCGCACAUGUAAACCA | 56.4 | 17
UGUGCGGACAUGUAAACCA | 69.9 | 16.4
UGUGCGUACAUGUAAACCA | 60.4 | 21.7
UGUGCUAACAUGUAAACCA | 94.6 | 64.5
UGUGCUCACAUGUAAACCA | 58.1 | 34.1
UGUGCUGACAUGUAAACCA | 72.2 | 52.7
UGUGCUUACAUGUAAACCA | 85.2 | 29.6
UGUGGAAACAUGUAAACCA | 69.4 | 51.5
UGUGGACACAUGUAAACCA | 38.7 | 23.6
UGUGGAGACAUGUAAACCA | 27.6 | 38.4
UGUGGAUACAUGUAAACCA | 43.9 | 34.9
UGUGGCAACAUGUAAACCA | 48.5 | 25
UGUGGCCACAUGUAAACCA | 9.22 | 13
UGUGGCGACAUGUAAACCA | 44.5 | 31.7
UGUGGCUACAUGUAAACCA | 50.8 | 22.1

Sequence | cell viability (H4) [%] | cell viability (GL261) [%]
UGUGGGAACAUGUAAACCA | 47.7 | 18.8
UGUGGGCACAUGUAAACCA | 16 | 15.7
UGUGGGGACAUGUAAACCA | 25.5 | 16.5
UGUGGGUACAUGUAAACCA | 27.5 | 11.1
UGUGGUAACAUGUAAACCA | 91.3 | 43.8
UGUGGUCACAUGUAAACCA | 33.5 | 7.94
UGUGGUGACAUGUAAACCA | 44.5 | 26.7
UGUGGUUACAUGUAAACCA | 59.8 | 40.5
UGUGUAAACAUGUAAACCA | 94.4 | 64.1
UGUGUACACAUGUAAACCA | 59 | 49.7
UGUGUAGACAUGUAAACCA | 69.4 | 46.3
UGUGUAUACAUGUAAACCA | 47.2 | 29
UGUGUCAACAUGUAAACCA | 54.9 | 24.1
UGUGUCCACAUGUAAACCA | 40.9 | 20.3
UGUGUCGACAUGUAAACCA | 58.1 | 26.5
UGUGUCUACAUGUAAACCA | 61.5 | 12.2
UGUGUGAACAUGUAAACCA | 56.9 | 40.3
UGUGUGCACAUGUAAACCA | 31.1 | 15.2
UGUGUGGACAUGUAAACCA | 21.1 | 15.3
UGUGUGUACAUGUAAACCA | 28.8 | 11.2
UGUGUUAACAUGUAAACCA | 67.5 | 50.1
UGUGUUCACAUGUAAACCA | 30.3 | 30.3
